Results from patent publication US5458889A (priority 1986, dated 1995).

Legend:
Gonococcus [1] = tested on: Gonococcus
Trichomonas [2] = tested on: Trichomonas
[3] = tested on: Streptococcus faecalis CNCM 5 855; conditions: pH 7.2
[4] = tested on: Pseudomonas aeruginosa CNCM A 22; conditions: pH 7.2
[5] = tested on: Staphylococcus Aureus Oxford origin CNCM 53 154; conditions: pH 7.2
[6] = tested on: Escherichia coli CNCM 54 127; conditions: pH 7.2
[7] = tested on: Mycobacterium smegmatis CNCM 7 326; conditions: pH 7.2
Pseudomonas Aeruginosa = assay type: cell-based
Gonococcus [8] = tested on: Gonococcus; remark: listed apart in the source
Chlamydia = experiment: MIC on Chlamydia (Tests 7 and 8); assay type: cell-based
Method: Inoculum: it is constituted by the host-cells of chlamydia or Mac Coy cells. They are preserved at
80° C. The cellular concentration is from 2 to […] cells/ml for the tests. The cellular layer is prepared in a complete culture medium.
The substances to be tested are diluted with an increasing range which geometrical ratio is 2 in bidistilled sterile water.
1 ml of dilution of the substances to be tested is mixed with 1 ml of cellular suspension (Mac Coy cells). then incubated 1 hour and 24 hours at 37° C. in stove. 0.2 ml of this admixture is then placed in the plates of the wells. The plates are centrifugated (1 hour at 2000 rpm) and incubated 1 hour at 37° C. The culture medium is then replaced with 0.2 ml of new medium containing 0.5 mg1 of cycloheximide and the plates are then incubated 48 hours at 37° C. The cellular layer is then fixed with methanol and overall couloured with a monoclonal antibody and conjugate with FITC (fluorescein isothiocyanate). Then the inclusions present in the Mac Coy cells are observed with an inversed epifluorescence microscope.
Therefore, the toxicity of the substances to be tested was first tested, and was taken into account for totally respecting the integrity of the host-cell.

Trichomonas [9] = tested on: Trichomonas; remark: listed apart in the source

Substance: Benzalkonium chloride
- Minimal inhibiting concentration (MIC) (Gonococcus [1]): 23.65 µg/mL and 15.62 µg/mL
- Minimal inhibiting concentration (MIC) (Trichomonas [2]): 11.80 µg/mL and 15.60 µg/mL
- Minimal inhibiting concentration (MIC) [3]: 4 µg/mL
- Minimal inhibiting concentration (MIC) [4]: 31.25 µg/mL
- Minimal inhibiting concentration (MIC) [5]: 1.56 µg/mL
- Minimal inhibiting concentration (MIC) [6]: 6.57 µg/mL
- Minimal inhibiting concentration (MIC) [7]: 30 µg/mL

Substance: Benzalkonium fluoride
- Minimal inhibiting concentration (MIC) (Pseudomonas Aeruginosa): 31.25 µg/mL
- Minimal inhibiting concentration (MIC) (Gonococcus [8]): 1.15 µg/mL
- Minimal inhibiting concentration (MIC) (Staphylococcus Aureus): 1.56 µg/mL
- Minimal inhibiting concentration (MIC) (Gardnerella): 50 µg/mL
- Minimal inhibiting concentration (MIC) (Chlamydia): 100 µg/mL
- Minimal inhibiting concentration (MIC) (Candidas Albicans): 50 µg/mL
- Minimal inhibiting concentration (MIC) (Streptococcus): 15 µg/mL
- Minimal inhibiting concentration (MIC) (Trichomonas [9]): 1.3 µg/mL
- Minimal inhibiting concentration (MIC) (Ducrey's Bacillus): 75 µg/mL
- Minimal inhibiting concentration (MIC) (Treponema): 70 µg/mL

Substance: nonoxynol 9
- Minimal inhibiting concentration (MIC) (Pseudomonas Aeruginosa): 50 µg/mL
- Minimal inhibiting concentration (MIC) [3]: 7 µg/mL
- Minimal inhibiting concentration (MIC) (Staphylococcus Aureus): 4 µg/mL
- Minimal inhibiting concentration (MIC) [4]: 50 µg/mL
- Minimal inhibiting concentration (MIC) [5]: 4 µg/mL
- Minimal inhibiting concentration (MIC) (Streptococcus): 20 µg/mL
- Minimal inhibiting concentration (MIC) [6]: 8 µg/mL
- Minimal inhibiting concentration (MIC) [7]: 65 µg/mL
- Minimal inhibiting concentration (MIC) (Treponema): 75 µg/mL

“And” between values parts separate entries of the source, which are not always exact repeats. Equal entries are not always repeated. Where two headings read alike, the source gives them in different places.
